# Measurements taken from PubChem BioAssay AID488969 (Vanderbilt High Throughput Screening Facility, 2010).
# Over roughly 110,000 compounds, “z-score” has its median near -0.1; the highest 2% begin near 2. The list shows a part of the results. Calls of active or inactive are those of the source.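 The calls were made as follows: active = z-score in the third read window above 3 or below -3; inactive = the rest.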
# Biological target: Metabotropic glutamate receptor 8 (Rattus norvegicus) (UniProt P70579)
# Assay: mGluR8 Gi/Go-coupled signaling modulation – cell-based, rat, thallium flux, HTS, primary screen (AID 488969)
# Details: HEK293 rat mGluR8, GIRK (G protein-gated inwardly rectifying potassium channel) thallium flux, FluoZin2; at 10 µM; stronger effect = higher value; submaximal glutamate (EC20) added with thallium
# Chain of UniProt P70579 (P70579 whole entry, looked up): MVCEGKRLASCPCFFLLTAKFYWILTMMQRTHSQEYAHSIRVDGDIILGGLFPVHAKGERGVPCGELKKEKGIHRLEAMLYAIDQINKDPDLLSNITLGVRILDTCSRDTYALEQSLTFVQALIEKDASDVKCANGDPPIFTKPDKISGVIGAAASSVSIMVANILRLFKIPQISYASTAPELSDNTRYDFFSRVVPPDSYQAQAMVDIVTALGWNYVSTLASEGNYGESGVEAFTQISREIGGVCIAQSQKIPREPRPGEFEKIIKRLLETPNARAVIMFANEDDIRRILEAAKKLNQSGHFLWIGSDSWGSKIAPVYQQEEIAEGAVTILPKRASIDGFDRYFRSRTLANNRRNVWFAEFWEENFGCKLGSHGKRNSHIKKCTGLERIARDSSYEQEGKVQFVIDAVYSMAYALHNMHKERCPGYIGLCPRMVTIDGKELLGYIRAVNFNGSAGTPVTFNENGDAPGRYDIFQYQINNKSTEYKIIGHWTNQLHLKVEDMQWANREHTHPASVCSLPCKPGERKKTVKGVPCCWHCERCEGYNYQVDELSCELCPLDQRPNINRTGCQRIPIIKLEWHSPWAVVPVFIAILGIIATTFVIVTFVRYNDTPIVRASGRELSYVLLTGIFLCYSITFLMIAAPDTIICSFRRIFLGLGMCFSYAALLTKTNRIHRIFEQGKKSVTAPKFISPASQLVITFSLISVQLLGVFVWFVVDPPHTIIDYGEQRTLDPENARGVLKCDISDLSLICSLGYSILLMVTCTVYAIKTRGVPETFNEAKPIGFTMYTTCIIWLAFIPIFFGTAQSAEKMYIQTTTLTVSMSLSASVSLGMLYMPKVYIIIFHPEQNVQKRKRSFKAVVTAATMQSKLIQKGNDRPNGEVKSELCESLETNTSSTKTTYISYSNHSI
row,SMILES,z-score
1,CCOC(=O)C1=C(C)NC(=S)NC1/C=C/c1ccccc1 (centres undefined),-0.0695
2,CC(=O)Nc1ccc(OCC(O)Cn2nc(C)nc2C)cc1 (centres undefined),-0.801
3,CCOC(=O)c1c(C)nc2sc3c(=O)n(-c4ccc(OC)cc4)cnc3c2c1-c1ccc(OC)cc1,-0.0166
4,Cc1nc2c(-c3ccc(F)cc3)c(C)nn2c(C)c1CCC(=O)N1CCOCC1,-0.13
5,c1coc(CNCc2cccs2)c1,0.584
6,N#Cc1ccc(NC(=O)c2nc(-c3ccccc3)n(-c3ccccc3)n2)cc1,-0.634
7,Nc1nc(Cl)cc(N2CCC(c3cc(-c4ccc(Cl)cc4Cl)n[nH]3)CC2)n1,0.128
8,O=C(C1CC1)N1CCN=C1SCc1ccc(F)cc1,0.173
9,COC(=O)CCC(=O)c1oc2ccccc2c1NC(=O)CCCN1C(=O)c2ccccc2C1=O,-0.0564
10,CCCCc1cc(=O)oc2c(CN(CC)CC)c(O)c(Cl)cc12,0.00794
11,CCCN(CCC)C(C(=O)Nc1cccc(OC)c1)c1ccccc1 (centres undefined),0.151
12,CCCN1CNC(=S)N(CC2CCCO2)C1 (centres undefined),0.136
13,Cc1cc(C(F)F)n2ncc(C(=O)NCc3ccccc3)c2n1,-0.4
14,COc1ccc(C(=O)NCCN2CCCC2)cc1OC,0.216
15,N#Cc1ccccc1/C=N/Nc1nc(-c2ccccc2)c2cc(Cl)ccc2n1,-0.0971
16,Nc1nc2ccc([N+](=O)[O-])c(N)c2s1,-0.0644
17,O=C(/C=C/c1ccccc1)NNC(=O)c1cccnc1,-0.195
18,CCc1cccc(CC)c1-n1c(SCn2nnc3ccccc3c2=O)nnc1-c1cccnc1,-0.291
19,CCOC(=O)c1c(NC(=O)c2ccccc2Br)sc2c1CCc1ccccc1-2,-0.456
20,O=C(COC(=O)Cc1cccc(C(F)(F)F)c1)Nc1ccccc1,0.426
21,C/C(=N/Oc1nc(C)cc(C)n1)c1ccc(Cl)cc1Cl,-0.231
22,CC(C)C(C)NC(=O)COc1ccc(-c2ccccc2)cc1 (centres undefined),-0.309
23,CCCCCCc1cc2cc(C(N)=O)c(=N)oc2cc1O,-1.44

row,SMILES,z-score
1,Cc1ccccc1C1C(C#N)=C2N=C(N)c3c(sc4c3CCCCC4)N2C2=C1C(=O)CC(C)(C)C2 (centres undefined),-0.815
2,CCOc1cc(C)c(Cl)cc1S(=O)(=O)NCc1ccco1,0.404
3,O=C(Nc1cc(-c2nc3ccccc3s2)ccc1Cl)c1ccc2c(c1)OCO2,0.277
4,CCOC(=O)CSc1nnc(CNC(=O)c2cc(OCC)c(OCC)c(OCC)c2)n1C,-0.467
5,CCOC(=O)Cc1csc(NC(=O)c2ccc(Br)s2)n1,1.08
6,Cc1ccc(OCCCN2C(=O)C(=O)c3cccc(C)c32)cc1,-0.259
7,CCOC(=O)c1cnc(SC2CC(=O)N(c3ccccc3)C2=O)nc1N (centres undefined),-0.244
8,CCCCNS(=O)(=O)c1ccc2nc(SCC(=O)Nc3sccc3C#N)[nH]c2c1,-1.36
9,CC(=O)N1CCCc2cc(S(=O)(=O)NC(C(=O)NCc3ccc(C)cc3)C(C)C)ccc21 (centres undefined),-0.339
10,Cc1ccc(OCC(O)CN2CCN(CC(O)COc3ccc(C)cc3Cl)CC2)c(Cl)c1 (centres undefined),-0.164
11,Cc1c(NC(=O)c2cccnc2C(=O)O)cccc1C(=O)O,-0.0324
12,Cc1ccc(OCCN2CCNCC2)c([N+](=O)[O-])c1,0.123
13,C=CCN(c1ccc(C(=O)Nc2cc(C)cc(C)c2)cc1)S(C)(=O)=O,-0.27
14,CN(C(=O)Cc1c[nH]c2ccccc12)C(C(=O)Nc1ccc2c(c1)OCO2)c1ccccc1 (centres undefined),-0.321
15,CCOC(=O)CC(NC(C)=O)c1ccc([N+](=O)[O-])cc1 (centres undefined),0.272
16,Cc1cccc(OCC(=O)NNc2c3ccccc3nc3ccccc23)c1,-0.312
17,Cc1nnc(SCc2cccs2)[nH]c1=O,-0.00591
18,CC(C)c1nnc(NC(=O)CN2C(=O)c3ccccc3C2=O)s1,0.896
19,CCCCOCC(O)CN1CCN(C(C)=O)CC1 (centres undefined),-0.536
20,O=C1c2ccccc2C(O)(c2ncc[nH]2)N1C1CCCCC1 (centres undefined),-0.34
21,COc1ccccc1CN1CCSCC1,-0.0181
22,O=C(COc1ccccc1[N+](=O)[O-])N/N=C/c1cccc(OC(=O)c2ccc3c(c2)OCO3)c1,0.0655
23,CCC(c1nnnn1CCc1ccccc1)N1CCN(C(=O)c2ccco2)CC1 (centres undefined),0.0857

row,SMILES,z-score
1,CCC1C(=O)Nc2nc(-c3ccccc3)c(-c3ccccc3)n2N=C1C (centres undefined),0.449
2,Cc1noc(C)c1COc1ccc(C(=O)OCC(=O)NC2CCCCC2C)cc1 (centres undefined),0.0741
3,CNC(=O)CSc1nnc(-c2ccncc2)n1Cc1ccccc1,-0.216
4,O=C(COc1ccc2oc(-c3ccccc3)cc(=O)c2c1)Nc1ccccc1,-0.172
5,O=C1N(Cc2ccccc2F)c2ccccc2C12OCCCO2,-0.297
6,CC1CC(Nc2ccccc2N)=CC(=O)O1 (centres undefined),0.01
7,O=C(c1ccc(F)cc1)N1CCN(Cc2ccccc2Br)CC1,-0.454
8,CCCCN(CC)S(=O)(=O)c1ccccc1,0.171
9,CCOC(=O)n1c(=O)n(Cc2ccccc2)c2ccccc21,-0.838
10,CCCNC(=O)c1ccc(Cn2c(=S)[nH]c3c([nH]c4ccc(OC)cc43)c2=O)cc1,-0.229
11,Cn1c(NC(=O)COc2ccccc2)cc(=O)n(C)c1=O,0.597
12,CCCSc1cc(NCCOC(C)=O)c([N+](=O)[O-])c2nonc12,2.48
13,COc1ccc(Cl)cc1Nc1nc(-c2sc(NC(=O)C(C)(C)C)nc2C)cs1,-0.194
14,CCOC(=O)CC1C(=O)NCCN1S(=O)(=O)c1ccc(Cl)c(Cl)c1 (centres undefined),0.108
15,O=C(Cn1nnc(-c2ccc(OCc3ccccc3F)cc2)n1)N1CCOCC1,-0.163
16,CN1C(=O)CSC1=NC12CC3CC(CC(C3)C1)C2,-0.449
17,O=C(NCn1cnccc1=O)c1ccccc1,0.063
18,Cc1nonc1OCCn1nnnc1N,-0.0665
19,O=C(CCSCCC(=O)NCc1ccco1)NCc1ccco1,-0.212
20,Cc1cc(C)nc(Sc2ccc(/C=C(\C#N)C(=O)Nc3ccccc3)o2)n1,-0.125
21,CCCCCCCCn1c(N2CCN(c3cccc(Cl)c3)CC2)nc2c1c(=O)[nH]c(=O)n2C,-0.178
22,Cc1occc1C(=O)Nc1c(F)c(F)c(F)c(F)c1F,-0.259
23,Cc1cc(-c2csc(NC(=O)c3cc4ccccc4o3)n2)c(C)n1C,-0.206

row,SMILES,z-score
1,CCCn1nc(NC(=O)c2cccs2)c2cc3cc(OC)ccc3nc21,-0.896
2,O=C(COc1ccccc1)OC(C(=O)c1ccccc1)c1ccccc1 (centres undefined),-0.174
3,Cc1ccc(NC(=O)CCc2c(C)nc3ncnn3c2C)nc1,-0.0827
4,Cn1nnc2cc(C(=O)NC3CC3)ccc21,1.12
5,COc1ccccc1CNC(=O)c1ccccc1N,-0.312
6,COc1ccc(NC(=O)CSc2nnc(-c3ccc(C)cc3)n2N)cc1,0.826
7,O=C(Cc1ccccc1[N+](=O)[O-])NCCSCc1c(F)cccc1Cl,-0.104
8,Clc1ccc(C2=CSC3=NCCN23)cc1Cl,0.92
9,Cc1ccc(C)c(OCC(=O)Nc2nc3ccc([N+](=O)[O-])cc3s2)c1C,2.46
10,C(/C=C/C=C/Nc1ccccc1)=Nc1ccccc1,active: 16.2
11,COc1cc(/C=N\NC(=O)c2ccc(Cn3cc(Br)c([N+](=O)[O-])n3)o2)cc(OC)c1O,-0.591
12,CC12CCC(C(=O)Nc3ccc4c(c3)OCCO4)(OC1=O)C2(C)C (centres undefined),0.112
13,O=c1cc(C23CC4CC(CC(C4)C2)C3)[nH][nH]1,-0.656
14,COC(=O)c1ccccc1NC(=O)c1ccccc1SC,-0.557
15,CCO/C(C)=C1\N=C(c2ccc(Cl)cc2)OC1=O,-0.358
16,O=S(=O)(c1ccc2c(c1)OCCO2)N1CCN(Cc2ccccc2)CC1,0.12
17,C=C(C)CNC(=S)Nc1sc2c(c1C(=O)OCC)CC(C)(C)OC2,0.296
18,Cn1c(N)c(C(=O)CCl)c(=O)n(C)c1=O,0.0911
19,Cc1cccc(-n2ccnc2SCC(=O)Nc2cc(C)on2)c1,-0.228
20,CCN(CC)S(=O)(=O)c1cccc(-c2nnc(SCc3ncc(-c4ccccc4)o3)n2C)c1,-0.456
21,N#CC1=C(N)Oc2ccc3ccc(O)cc3c2C1c1ccsc1 (centres undefined),-0.275
22,O=C(CN(c1ccc(Cl)cc1)S(=O)(=O)c1ccccc1)N/N=C/c1ccco1,-0.371
23,O=C(CSc1nnnn1-c1ccccc1)Nc1ccc(N2CCOCC2)c(Cl)c1,-0.613

row,SMILES,z-score
1,Cn1cnnc1SC(C(=O)c1ccccc1)c1ccccc1 (centres undefined),-0.88
2,COc1ccc(N(CC(O)CN2C(=O)NC(C)(C)C2=O)S(=O)(=O)c2ccccc2)cc1 (centres undefined),-0.294
3,CC(C)C(=O)Nc1ccc(Nc2ccccc2)cc1,0.603
4,c1ccc(CNc2nnnn2-c2ccccc2)cc1,-0.197
5,CCOc1ccc(-n2c(C)nc3cc(C(=O)NCCN4CCOCC4)ccc32)cc1,-0.173
6,Cn1c(=O)c2[nH]c(-c3cccnc3)nc2n(C)c1=O,0.366
7,Cc1ccc(OCC(=O)N2CCC(N3CCCCCC3)CC2)cc1,0.172
8,CCC(C)NC(=O)COC(=O)c1cccnc1Nc1ccccc1F (centres undefined),0.219
9,COc1cc2cc(C)nc(Cc3cccc4ccccc34)c2cc1OC,-0.0707
10,COc1ccc(S(=O)(=O)N/N=C\c2ccc(OC)c(COc3ccc(C)cc3[N+](=O)[O-])c2)cc1,-0.436
11,Cc1nn2c3ccccc3n(Cc3ccccc3)c2nc1=O,-1.33
12,NC1=NC(=O)C(Cc2cc(Cl)ccc2Cl)S1 (centres undefined),-0.00308
13,COC(=O)C1=C(C)N=c2s/c(=C/c3cccs3)c(=O)n2C1c1ccc(F)cc1 (centres undefined),-0.323
14,Cc1ccccc1NC(=S)N(C)CCc1ccccn1,0.507
15,c1ccc2c(c1)ncn2Cc1nnc2sc(-c3ccc4c(c3)OCO4)nn12,0.0378
16,O=C(NCc1ccccc1)c1cc2ccccc2o1,0.323
17,COc1ccc(S(=O)(=O)Nc2ccc(S(=O)(=O)N3CCCCC3)cc2)cc1C,0.0459
18,CC(=O)Nc1cccc(Oc2ncnc3scc(-c4ccccc4)c23)c1,-0.355
19,CN1CCc2c(sc3ncn4nc(-c5ccccc5O)nc4c23)C1,-0.798
20,CCC(C)NS(=O)(=O)c1ccc(OC)c(Cl)c1Cl (centres undefined),-0.769
21,O=C(Nc1ccc2nn(-c3ccccc3)nc2c1)c1ccc2c(c1)OCO2,1.29
22,CN(CC(=O)O)Cc1nc2ccccc2[nH]1,-0.0882
